The list shows a part of the results.

The results in this text go back to article PMC7819943, “Rice protein-binding microarrays: a tool to detect cis-acting elements near promoter regions in rice”.

In this assay the target is T1, OsWOX13 (Oryza sativa, UniProt Q5QMM3 1-267).
T1 sequence: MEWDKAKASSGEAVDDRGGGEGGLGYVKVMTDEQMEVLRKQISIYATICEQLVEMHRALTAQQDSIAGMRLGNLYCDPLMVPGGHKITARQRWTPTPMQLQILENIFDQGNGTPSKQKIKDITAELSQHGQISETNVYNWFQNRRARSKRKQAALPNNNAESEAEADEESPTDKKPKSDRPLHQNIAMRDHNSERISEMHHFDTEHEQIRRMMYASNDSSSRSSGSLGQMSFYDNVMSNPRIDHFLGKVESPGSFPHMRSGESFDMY
Nature of the assay: protein-binding microarray (RPBM); PBS, 2% BSA, 51.3 ng/ul salmon testes DNA, 50 uM zinc acetate, 200 nM TF, 25 C, 1 h; high values mean tight binding. The settings on record: protein: recombinant; tags: N-terminal polyhistidine and DsRed monomer fusion (pET32a); label: CyDye5-dUTP incorporated in the synthesized complementary strand; 3' TTTTT single-stranded linker to array surface; dsDNA, one strand shown. The gist of the method:
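The binding signal for each feature is its fluorescence intensity in arbitrary units. An Axon 4000B scanner was used to read a custom Agilent array that had been made double-stranded with Cy5-dUTP primer extension, blocked with 2% BSA, incubated at 25 °C for 1 h with 200 nM protein in PBS, 2% BSA, salmon testes DNA and 50 µM zinc acetate, and washed. The protein was an N-terminal polyhistidine–DsRed transcription factor fusion from E. coli BL21-CodonPlus, purified on Ni–NTA.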
Regarding “AGTTTGATTACTTGGCCTCAGTACTAAAAGTTACTCAGTACGGAGTCACCTAGTGCAG”, the binding signal was 16400 fluorescence intensity (a.u.).

Turning to “TTGACAATTAAAGGACATTTGTATCTGGTATTTTGGTTCGCGGAGTCACCTAGTGCAG”, the binding signal is 4200 fluorescence intensity (a.u.).

In the case of “CTAAACTGATCTAAATGAGAAGCTATGAGTGACCAAACAGCGGAGTCACCTAGTGCAG”, the binding signal is 33600 fluorescence intensity (a.u.).

Consider “TTAGATTAATTTATTCTGAAACGGATAGGACGAATGGAGTCGGAGTCACCTAGTGCAG”, for which the binding signal was 41700 fluorescence intensity (a.u.).

As for “AAAATATATATTTTGCAATAATTTATGTGTCAAATTGAACCGGAGTCACCTAGTGCAG”, the binding signal was 5050 fluorescence intensity (a.u.).

Turning to “TATACTAATTACTAGCACTACTACTCCAGTAGAGTAGGAGCGGAGTCACCTAGTGCAG”, the binding signal was 11000 fluorescence intensity (a.u.).

Turning to “TAACTAATTACCAAACAGATCGTACCCCACCATAAGAATCCGGAGTCACCTAGTGCAG”, the binding signal is 29200 fluorescence intensity (a.u.).

For “ATTAATTGCATTTCCTGCCTCGGTTTCAGAAAAGAAAAGTCGGAGTCACCTAGTGCAG”, the binding signal is 22500 fluorescence intensity (a.u.).

In the case of “AGAAATGGATAATGACTGGTACGTGGGCCGCTATAACTTTCGGAGTCACCTAGTGCAG”, the binding signal was 13400 fluorescence intensity (a.u.).

For the sequence “TCCAACTGATAGTTGATGATAGGCGTTAGGTTAGTTTACTCGGAGTCACCTAGTGCAG”, the binding signal was 8180 fluorescence intensity (a.u.).

Take “CGCGCTGATTTGACTTCCGGTTTGAAATACCACCACACCACGGAGTCACCTAGTGCAG”: the binding signal was 23500 fluorescence intensity (a.u.).

As to “TTGATGCCTAATTTGTTATTTTATAATTTTATTTGAATTTCGGAGTCACCTAGTGCAG”, the binding signal was 8290 fluorescence intensity (a.u.).

Consider “CTATGGGATTGGTTGTTATTTGTACTACTGAGTACTGACCCGGAGTCACCTAGTGCAG”, for which the binding signal is 14000 fluorescence intensity (a.u.).

On to “AACAAACATTCCTCTGATAATTAAGTTATATTATACTTCCCGGAGTCACCTAGTGCAG”, for which the binding signal was 3260 fluorescence intensity (a.u.).

“TTTTATATGACAATCAGCCTTCTATCAATAAAGTAGGTATCGGAGTCACCTAGTGCAG”: the binding signal was 5430 fluorescence intensity (a.u.).

On to “GTTAATTAATACTCTCCGTTTCATATTATAAGGCGTTTGACGGAGTCACCTAGTGCAG”, for which the binding signal is 17400 fluorescence intensity (a.u.).

For “TGTTCTTTAACAGATTGATAGGGCTAGTTTAGTACAGTAACGGAGTCACCTAGTGCAG”, the binding signal is 25300 fluorescence intensity (a.u.).

In the case of “TAATTTAAATAAATTACTTTTAAGTTAATAAAATATTTGACGGAGTCACCTAGTGCAG”, the binding signal is 3580 fluorescence intensity (a.u.).

On to “CGCCATTTTCAATCAAAGATTCCTACTAGTATTAGTAGTGCGGAGTCACCTAGTGCAG”, for which the binding signal was 22000 fluorescence intensity (a.u.).

“TGTAATTGTCATGAGGCATTCAACATTTCTGAGTTGGCGCCGGAGTCACCTAGTGCAG”: the binding signal is 14100 fluorescence intensity (a.u.).

For “ATGTCAGGACAATCAGGATTTAATTATTTTACAGCGGGGACGGAGTCACCTAGTGCAG”, the binding signal is 9780 fluorescence intensity (a.u.).

In the case of “TTAGATTGAATCTGTGAATTCCCTTCCTCTCCGTACGTCACGGAGTCACCTAGTGCAG”, the binding signal is 35200 fluorescence intensity (a.u.).

Consider “TGTGATGTGATGGAAAGTTGGAAGTTTGGTGTGAACTAAACGGAGTCACCTAGTGCAG”, for which the binding signal was 5490 fluorescence intensity (a.u.).

As for “TGTGTCGGTTAATTTCTTTCCTGTGACCTATCAAAGATGACGGAGTCACCTAGTGCAG”, the binding signal is 3650 fluorescence intensity (a.u.).

As to “ATTTAAAATAGTTAATACTTAATTAATCATGAGCTAATAGCGGAGTCACCTAGTGCAG”, the binding signal was 7430 fluorescence intensity (a.u.).

In the case of “GTTTAGACTGTAGAGATTGCCAAAATTAACAAGTGACCAACGGAGTCACCTAGTGCAG”, the binding signal is 14900 fluorescence intensity (a.u.).

Consider “ATCTAATTATCTGTTGCAATATAGTCATCACTGTGATTTCCGGAGTCACCTAGTGCAG”, for which the binding signal is 13400 fluorescence intensity (a.u.).

As to “GTGATGATAGCTCCATGATTTCTGCTAGCATGCCAGGAACCGGAGTCACCTAGTGCAG”, the binding signal is 12900 fluorescence intensity (a.u.).

As for “CATGTTAATTTGGGACGAGAGTCGGACTCCTATTTCCTTTCGGAGTCACCTAGTGCAG”, the binding signal was 7570 fluorescence intensity (a.u.).

Consider “CGTCAATCTCGCATCAGAAGGTCTCCACCTGTCCCACGTGCGGAGTCACCTAGTGCAG”, for which the binding signal is 4500 fluorescence intensity (a.u.).

For the sequence “AATTATATACTAATTACATATGTAAGTGGGGTGTAAATGACGGAGTCACCTAGTGCAG”, the binding signal was 6890 fluorescence intensity (a.u.).

For the sequence “AATTGTCATCTTGTGGTCCAATCAATCCATGTATTTTCTTCGGAGTCACCTAGTGCAG”, the binding signal is 3510 fluorescence intensity (a.u.).

Turning to “TAACAAATTAAAGTCTAACTAGTATATACATATATTCAGACGGAGTCACCTAGTGCAG”, the binding signal was 4350 fluorescence intensity (a.u.).

Regarding “CACTGATGACAGACACATCCAACAATCTCAATATTACTAGCGGAGTCACCTAGTGCAG”, the binding signal is 19600 fluorescence intensity (a.u.).

As for “CGCACGTGATTCGTCGGAAGTATGTTTCTTTACATGCCTACGGAGTCACCTAGTGCAG”, the binding signal is 20400 fluorescence intensity (a.u.).

As for “GTTGATTGTTAGTGCATATTTATATATATATTCAGGATTTCGGAGTCACCTAGTGCAG”, the binding signal is 44400 fluorescence intensity (a.u.).

Regarding “AGTTAAATTATTGTCCTCTTAATTTCTGTCACGGTGTCACCGGAGTCACCTAGTGCAG”, the binding signal was 26100 fluorescence intensity (a.u.).

In the case of “ATTTGTCTACCCAAGATGATTGGAGCCACACGTCGGTCAGCGGAGTCACCTAGTGCAG”, the binding signal is 12800 fluorescence intensity (a.u.).

With “TTTGCTTCACATAATCACGAAGCAGATTGCCGAAAGGGTTCGGAGTCACCTAGTGCAG”, the binding signal was 3850 fluorescence intensity (a.u.).

Turning to “ACCATCAAATTAAATTTATAATGGGATGATCCAATTAATCCGGAGTCACCTAGTGCAG”, the binding signal is 18800 fluorescence intensity (a.u.).

For the sequence “CTGATTGTTTGTGCTTCTGTTTCCCCTGAGGACAATGAACCGGAGTCACCTAGTGCAG”, the binding signal is 23600 fluorescence intensity (a.u.).

Take “CAGAGCCAGTGATTGGAGGGTGGAGAGGGCTCCAATAATCCGGAGTCACCTAGTGCAG”: the binding signal is 13600 fluorescence intensity (a.u.).
